Data as given in PubChem BioAssay AID1347417 (National Center for Advancing Translational Sciences (NCATS), 2020).
In all, about 120,000 compounds went through this assay and about 5,300 (4.4%) were called active. Inconclusive means that the source gave no clear call. Such entries were picked first, then a sample of the others. Calls follow the shape of the dose curve; as a rule, active = well fitted inhibition curve with a large enough effect; inconclusive = small, poorly fitted or top-dose-only effect; inactive = no such curve, though single readings can be large or run the other way. Potencies of inconclusive entries are doubtful fits and often do not repeat.

experiment: qHTS Primary assay for Inhibitors of Plasmodium falciparum Dd2 growth in vitro; also: nearly all actives have a fitted effect of over 65% in size; details: P. falciparum Dd2 growth, SYBR Green, 72 h; series mostly up to 28.9 µM
Method in brief: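 Infected erythrocytes (Dd2, 0.3% parasitemia, 2.5% hematocrit final) are added to compound in RPMI-1640/Albumax II medium, grown 72 h at 37C in low oxygen, then lysed with saponin/Triton-X containing SYBR Green and read by fluorescence.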
Potency is read from the fitted curve at half-maximal effect; tags tell the direction and shape of the fitted curve.

| SMILES | Potency |
| --- | --- |
| Cc1cccc(CN2C(=O)c3ccccc3Sc3ccc(C(=O)N4CCCC4)cc32)c1 | active: 14.1 µM |
| CCOC(=O)c1c(NC(=O)COc2ccccc2F)sc2c1CCCC2 | inactive |
| COc1ccc(-c2nc(C(C)C)nc3c2CCN(C(=O)c2cccc(Cl)c2)CC3)cc1 | active: 5.62 µM |
| CCN(CC)c1ccc(NC(=O)CSc2nnc(C)c(=O)[nH]2)cc1 | inconclusive: 17.8 µM [inhibitor, single point] |
| Cn1ccc2c(C(=O)NCc3cccnc3)nc(-c3cccnc3)cc21 | inactive |
| CCCN(CCC)C(=O)CSc1nnc2cc(C)c3cc(C)cc(C)c3n12 | inconclusive: 17.8 µM [inhibitor, single point] |
| COc1ccc2[nH]c(C[C@@H]3C[C@@H](C(C)C)[C@H](CN(Cc4ccccn4)Cc4ccccn4)C=C3C)nc2n1 | inconclusive: 1.58 µM [inhibitor, partial curve, poor fit] |
| Cc1cccc(OCc2ccc(-c3nc(C#N)c(NCCN(C)C)o3)o2)c1 | inconclusive: 10 µM [inhibitor, single point] |
| Cc1cc(Nc2ccc(C)c(C)c2)n2cnnc2n1 | inconclusive: 3.98 µM [inhibitor, single point] |
| COC(=O)c1ccccc1NC(=O)Cn1cc(S(=O)(=O)Cc2ccccc2F)c2ccccc21 | inconclusive: 17.8 µM [inhibitor, single point] |
| CCOC(=O)c1c(C)oc2nc(C)nc(NCc3ccccc3Cl)c12 | inconclusive: 4.47 µM [inhibitor, partial curve, poor fit] |
| CCCCc1ccc(-n2nc3cc(C)c(NC(=O)Cc4ccccc4)cc3n2)cc1 | inconclusive: 14.1 µM [inhibitor, partial curve, poor fit] |
| Cc1nc(CN2CCCC(c3[nH]ncc3Cc3ccccc3)C2)co1 (stereo unspecified) | inconclusive: 3.98 µM [inhibitor, partial curve] |
| COc1cccc(-c2nc3cc(SC)ccc3cc2CN(C)Cc2ccno2)c1 | inconclusive: 12.6 µM [inhibitor, partial curve] |
| Cc1noc(C)c1[S+](=O)([O-])N1CCn2ncc(C(=O)NCc3ccc(Cl)nc3)c2C1 | inconclusive: 17.8 µM [inhibitor, single point] |
| CC(C)(C)OC(=O)N1CCC(c2c(C(=O)NCc3ccccn3)cnn2-c2ccccc2)CC1 | inconclusive: 11.2 µM [inhibitor, single point] |
| Cc1ccc(CN2CCCCC23Cc2ccccc2CNC3=O)cc1C (stereo unspecified) | active: 7.94 µM |
| Cc1occc1C(=O)N1CC[C@@H]2CN(S(C)(=O)=O)[C@@H]2C1 | inactive |
| Cc1ccc(C(=O)N2[C@H]3CC[C@@H]2c2cnc(-c4ccccc4)nc2C3)c(C)c1 | inconclusive: 12.6 µM [inhibitor, single point] |
| Cc1cc(C(F)(F)F)nn1CC(=O)N1CCCCCCN(C)C(=O)[C@@H]2CCC[C@@H]21 | inactive |
| Cc1ccc(C(=O)Nc2ccc(NC(=O)CCCn3cncn3)cc2)o1 | inactive |
| COc1ccc(OC)c(CN2CCC3(CC2)OC(=O)N(Cc2ccc(O)cc2)C3(C)c2ccccc2)c1 (stereo unspecified) | inconclusive: 1.26 µM [inhibitor, partial curve, poor fit] |

| SMILES | Potency |
| --- | --- |
| COc1ccc(C(=O)Nc2ccc(-c3nc4ncccc4o3)cc2)cc1 | inconclusive: 0.562 µM [inhibitor, full curve, poor fit] |
| COc1ccccc1Nc1nn2c(=O)c3ccc(C(=O)NCc4cccs4)cc3nc2s1 | inconclusive: 11.2 µM [inhibitor, single point] |
| COc1ccc(-c2cc(N3CCC(NC(=O)COc4ccc(F)cc4)CC3)n[nH]2)cc1 | inactive |
| CCc1nc2nc(C)cc(Nc3ccc(OC)cc3)n2n1 | inconclusive: 11.2 µM [inhibitor, single point] |
| COc1cccc(NC(=O)c2cc3c(N(C)Cc4ccccc4)nc(C)cn3n2)c1 | inconclusive: 3.16 µM [inhibitor, single point] |
| Cn1c(SCC(=O)N2CCCc3ccccc32)ncc(C(=O)Nc2ccc(Cl)cc2)c1=O | inactive |
| COc1cccc(CN(Cc2ccco2)c2cnc(S(C)(=O)=O)nc2C(=O)Nc2cccc(Cl)c2C)c1 | inconclusive: 12.6 µM [inhibitor, single point] |
| O=C(c1cc(F)ccc1F)N1CCCC2(C1)NC(=O)N(Cc1cccc(Cl)c1)C2=O (stereo unspecified) | inconclusive: 8.91 µM [inhibitor, partial curve, poor fit] |
| CC(C)C1=NOC2(CCN(C(=O)c3ccc(C(F)(F)F)cc3)C2)C1 (stereo unspecified) | inactive |
| COc1cccc(-c2nnnn2[C@H]2CO[C@H]3[C@@H]2OC[C@@H]3NC(=O)c2ccccc2)c1 | inactive |
| O=C(NCc1nc(-c2ccncc2)n[nH]1)C1CCCN(C2CCCC2)C1 (stereo unspecified) | inactive |
| Cc1ccccc1CNC[C@H]1Cn2cc(-c3ccccc3)nc2CO1 | inconclusive: 0.631 µM [inhibitor, partial curve, poor fit] |
| O=C(c1cccc([N+](=O)[O-])c1)N1c2ncnn2C2(CCCCC2)[C@@H]2CCCC[C@@H]21 | inconclusive: 20 µM [inhibitor, single point] |
| COc1cccc(OCCCCn2c(-c3ccc(Cl)cc3)nc3ccccc3c2=O)c1 | active: 10 µM |
| O=C(NC1CC1)c1cc(-c2ccccc2F)cc2c1OCCN2Cc1cccnc1 | inconclusive: 3.55 µM [inhibitor, single point] |
| O=C(c1nnn2c1COC(c1ccc(Cl)cc1)C2)N1CCN(C(=O)c2c(F)cccc2F)CC1 (stereo unspecified) | inconclusive: 2.82 µM [inhibitor, full curve, poor fit] |
| Cc1ccc(-c2onc(C)c2C)cc1S(=O)(=O)NCc1ccco1 | inactive |
| Cc1ccccc1-c1cc(C(=O)N2CCC3(CC2)CC(O)CCO3)[nH]n1 (stereo unspecified) | inconclusive: 0.708 µM [inhibitor, full curve] |
| O=C(NCC1CCCCC1)c1cc2n(n1)CC(c1ccc(Cl)cc1)OC2 (stereo unspecified) | inconclusive: 17.8 µM [inhibitor, single point] |
| Cc1ccc(-c2nnc(Nc3cccc(Cl)c3)c3ccccc23)cc1S(=O)(=O)NCC1CCCO1 (stereo unspecified) | active: 10 µM |
| Cn1c(CN2CCC(C#N)(c3ccccc3)CC2)nnc1C1CC(N)C1 (stereo unspecified) | inconclusive: 10 µM [inhibitor, single point] |
| COCCNc1nc2c(S(=O)(=O)c3c(C)cc(C)cc3C)nnn2c2ccccc12 | inconclusive: 7.94 µM [inhibitor, partial curve] |

| SMILES | Potency |
| --- | --- |
| CC(C)CNC(=O)C1c2ccccc2C(=O)N(Cc2ccccc2)C12CCCC2 (stereo unspecified) | inconclusive: 11.2 µM [inhibitor, partial curve, poor fit] |
| COc1ccc(COC(=O)c2[nH]c3c(c2C)C(=O)CC(c2ccc(OC)c(OC)c2)C3)cc1 (stereo unspecified) | inconclusive: 11.2 µM [inhibitor, partial curve, poor fit] |
| O=C1NC2(CCN(C(=O)c3ccc(Cl)cc3)CC2)Oc2ccccc21 | inactive |
| Cc1ccccc1CNC(=O)c1ccc2c(c1)C(O)CCCCCN2C (stereo unspecified) | inconclusive: 15.8 µM [inhibitor, single point] |
| Cc1cnc(-c2cccnc2)n1CC1CCN(S(=O)(=O)Cc2ccccc2)CC1 | inconclusive: 20 µM [inhibitor, single point] |
| O=C(c1ccccn1)N1CCCC(c2nc(C3CCOCC3)no2)C1 (stereo unspecified) | inactive |
| Cc1cnc(CC2CCCN(C(=O)NC(C)(C)C)C2)n1Cc1ccc(F)cc1 (stereo unspecified) | inconclusive: 3.55 µM [inhibitor, full curve, poor fit] |
| COc1ccc(NC(=O)N[C@H]2C[C@@H](C(=O)N[C@H](Cc3c[nH]c4ccccc34)C(N)=O)N(C(=O)C3CC3)C2)cc1 | inactive |
| CCNC(=O)N[C@@H]1C=C[C@@H](c2c(C)nn(-c3ccc(OC)cc3)c2C)C1 | active: 10 µM |
| COc1cccc(Cn2nnc3c(=O)[nH]c(C4CCCN(C(=O)c5ccc(C)cc5)C4)nc32)c1 (stereo unspecified) | active: 10 µM |
| CN(Cc1ccccc1C(F)(F)F)C(=O)c1ccc(C(F)(F)F)cc1 | inconclusive: 11.2 µM [inhibitor, single point] |
| COCc1nc(C2CCN(S(=O)(=O)c3cccc(OC)c3)C2)no1 (stereo unspecified) | inactive |
| Cc1ccc(-n2ncc(C(=O)NC3CCCC3)c2C2CCN(C(=O)OC(C)(C)C)CC2)c(C)c1 | active: 10 µM |
| CN1CC2(CCN(C(=O)NCCc3ccccc3)CC2)CC1C(=O)N1CCOCC1 (stereo unspecified) | inconclusive: 11.2 µM [inhibitor, single point] |
| O=C1CC(C(=O)O)C2(CCN(C(=O)c3ccc4c(c3)OCO4)CC2)N1 (stereo unspecified) | inactive |
| Cc1c(NS(=O)(=O)c2cccc(C(=O)O)c2)c(=O)n(-c2ccccc2)n1C | inconclusive: 2.82 µM [inhibitor, single point] |
| CCc1ccc(CNC(=O)[C@H]2CCC[C@H]2NC(=O)c2ccc(OC)cc2)cc1 | inconclusive: 8.91 µM [inhibitor, partial curve, poor fit] |
| Cn1cnc(S(=O)(=O)N2CCC3(CC2)CC(Cc2ccccc2)CCO3)c1 (stereo unspecified) | inactive |
| CCC(=O)N1c2ccccc2CC1C(=O)NCc1ccccc1C (stereo unspecified) | inconclusive: 0.0355 µM [inhibitor, full curve] |
| Cc1cccc(NC(=O)N2CCc3c(C(=O)N4CCN(C)CC4)cccc32)c1 | inconclusive: 11.2 µM [inhibitor, single point] |
| CN(CCc1ccccn1)C(=O)CCC[C@H]1NC[C@@H]2CC1CN(Cc1ccccc1)C2 | inactive |
| O=C(C1CC1)N1CCC2(CC1)SCC(=O)N2c1ccc(Cl)cc1 | inactive |
